According to the RNAGym collection of RNA variant scans (doi:10.1093/nar/gkz1192):
The source gives no read counts; variants with many changes may rest on few reads.

B1: CPEB3 Ribozyme (parent)
chain: UAACAGGGGGCCACAGCAGAAGCGUUCACGUCGCAGCCCCUGUCAGAUUCUGGUGAAUCUGCGAAUUCUGCUGUAUAUCUC

Variants of: B1
Assay: self-cleavage, relative activity (ratio to wild type); higher = more cleavage; in vitro, sequencing
Outline: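 Libraries of CPEB3 self-cleaving ribozyme mutants came from rounds of error-prone PCR and carried barcodes, which DNA sequencing matched to variants. In vitro transcription used T7 RNA polymerase at 37°C for 5 hours, with a further 15 min in DNase I before EDTA stopped the reaction; the ribozymes cleaved during both steps. The RNA was reverse transcribed with template switching and sequenced on Illumina. Relative activity is the cleaved/total read fraction of a variant divided by that of the unmutated ribozyme, averaged over three batches with at least 5 reads.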
Work on U1C A2U G16A U26A A65G yielded a self-cleavage of 0.09.
U1C A2U U69C gave a self-cleavage of 0.55.
U1C A3C A18G A20G A57G gave a self-cleavage of 0.61.
For U1C A3C A18U U60C U69A, the self-cleavage was 0.98.
With U1C A3G A15U A45U A47G A75G the self-cleavage was 0.26.
U1C A3G A20G U26C A35U C40A gave a self-cleavage of 0.51.
Work on U1C A3G C17U A28C C34U yielded a self-cleavage of 0.08.
With U1C A3G U41C U60C the self-cleavage was 0.47.
Work on U1C A3U A15U U51A U54C yielded a self-cleavage of 0.84.
In the case of U1C A3U U41C U60A, the self-cleavage is reported as 0.41.
For U1C A5C U26C A28G C81U, the self-cleavage was 0.3.
U1C A5G A21U C39U U67C gave a self-cleavage of 0.28.
In the case of U1C A5G A45G U72A, the self-cleavage is reported as 0.3.
For U1C A5G A64G, the self-cleavage was 0.25.
For U1C A5G C11U, the self-cleavage was 0.44.
With U1C A5G C59U U69C the self-cleavage was 0.34.
U1C A5G U25C A65G showed a self-cleavage of 0.33.
For U1C A5G U26C A65G U67C G70A, the self-cleavage was 0.17.
In the case of U1C A5U A13C A21U C29U U69A, the self-cleavage is reported as 0.07.
U1C A5U A18G A35G A56U gave a self-cleavage of 0.45.
In the case of U1C A5U A21G U31C U41C, the self-cleavage is reported as 0.09.
Variant U1C A5U A28U G52C U58A G63C U72C has a self-cleavage of 0.46.
U1C A5U A35G A47C gave a self-cleavage of 0.8.
Variant U1C A5U G16C U41A has a self-cleavage of 0.21.
Variant U1C A5U U25C U26C A45U G52U has a self-cleavage of 0.43.
Variant U1C A5U U31C U41A U54C U66C U76C has a self-cleavage of 0.19.
Variant U1C A5U U41C U69A A77C has a self-cleavage of 0.6.
Work on U1C A5U U43C U48A U60C yielded a self-cleavage of 0.07.
Variant U1C A13C A18G A45G U51A U54G has a self-cleavage of 0.29.
Work on U1C A13C A28G U31A A56U U69C yielded a self-cleavage of 0.1.
With U1C A13G A15G A65U the self-cleavage was 0.01.
Variant U1C A13G A21U U58C U60A U80A has a self-cleavage of 0.16.
Work on U1C A13G A45G A57G C79U yielded a self-cleavage of 0.33.
U1C A13G G46A A47U U67C showed a self-cleavage of 0.09.
Work on U1C A13G G53A A56G U66A U72A U78A yielded a self-cleavage of 0.07.
With U1C A13G G55A the self-cleavage was 0.8.
In the case of U1C A13G U25C A35G U78C, the self-cleavage is reported as 0.08.
U1C A13G U25C U80C gave a self-cleavage of 0.09.
Work on U1C A13U A20G U25C U49C C62G yielded a self-cleavage of 0.5.
Variant U1C A13U A21G G24C G33A U49A U69C has a self-cleavage of 0.04.
U1C A13U U26A A64U A65G U72C gave a self-cleavage of 0.08.
With U1C A13U U26A U48C the self-cleavage was 0.53.
Variant U1C A13U U48C U69A has a self-cleavage of 0.36.
Variant U1C A15C A45G A64G has a self-cleavage of 0.29.
With U1C A15C A47U A56G U60C the self-cleavage was 0.24.
Work on U1C A15G A21G U26A U41A C62G yielded a self-cleavage of 0.04.
For U1C A15G A45C U60A, the self-cleavage was 0.08.
Work on U1C A15G A77U yielded a self-cleavage of 0.41.
Variant U1C A15G U41C U60C has a self-cleavage of 0.13.
U1C A15G U51A U72C gave a self-cleavage of 1.08.
For U1C A15U A18U A28U A35G U49C U76A, the self-cleavage was 0.2.
U1C A15U A57G U58A gave a self-cleavage of 0.05.
Variant U1C A15U C38A has a self-cleavage of 0.43.
U1C A15U U26A U43A G63U gave a self-cleavage of 0.04.
For U1C A15U U49A, the self-cleavage was 0.29.
U1C A18C U26C A35G U67C showed a self-cleavage of 0.12.
With U1C A18C U43C U54A the self-cleavage was 0.18.
Variant U1C A18G A20G C32U A56G A64G A65G has a self-cleavage of 0.04.
For U1C A18G A35G C68U U72C, the self-cleavage was 0.84.
With U1C A18G A45U C79A U80A the self-cleavage was 0.08.
In the case of U1C A18G G22C U67C A77U, the self-cleavage is reported as 0.08.
In the case of U1C A18G U25A, the self-cleavage is reported as 0.43.
U1C A18U A28G U48C U49A gave a self-cleavage of 0.17.
Variant U1C A18U G19U U41C U43G has a self-cleavage of 0.05.
For U1C A18U U25A U49C U60A, the self-cleavage was 0.
In the case of U1C A18U U25C U26C A35G, the self-cleavage is reported as 0.08.
In the case of U1C A18U U31C A77G, the self-cleavage is reported as 0.33.
With U1C A18U U41C C62U the self-cleavage was 0.24.
With U1C A18U U49C the self-cleavage was 0.24.
Work on U1C A18U U74C yielded a self-cleavage of 0.68.
In the case of U1C A20G A45G U49A A65U, the self-cleavage is reported as 0.05.
U1C A20G C23G U54A C62G A65G showed a self-cleavage of 0.09.
For U1C A20G C40A U49A U58G U60C U69C, the self-cleavage was 0.03.
For U1C A20G U26A A35G, the self-cleavage was 1.23.
U1C A20G U26G U31C C32U showed a self-cleavage of 0.06.
U1C A20G U41C C71G U72A showed a self-cleavage of 0.22.
U1C A20G U51C U78C showed a self-cleavage of 0.8.
Variant U1C A20G U60A A77G U78A has a self-cleavage of 0.23.
Work on U1C A20G U74C yielded a self-cleavage of 1.05.
In the case of U1C A20U A21U U51A U60C, the self-cleavage is reported as 0.17.
With U1C A20U A35G U48C U51A U60A the self-cleavage was 0.1.
Work on U1C A20U U25C yielded a self-cleavage of 0.38.
For U1C A20U U51C U54C, the self-cleavage was 0.21.
U1C A21G A35G A47U U51A G63C U66C gave a self-cleavage of 0.89.
Work on U1C A21G A35G U54A A75G C79U yielded a self-cleavage of 1.17.
In the case of U1C A21G A35U A45G A56G, the self-cleavage is reported as 0.31.
For U1C A21G C23G U58C A64G, the self-cleavage was 0.2.
For U1C A21G C32U G33A A45G G52U U60C, the self-cleavage was 0.05.
For U1C A21G C59A U60A, the self-cleavage was 0.22.
U1C A21G U25C A35G U41G gave a self-cleavage of 0.
Variant U1C A21G U25C U31C U54C has a self-cleavage of 0.33.
In the case of U1C A21G U26C A47G U78C, the self-cleavage is reported as 0.3.
U1C A21G U51C U76A U80C showed a self-cleavage of 0.68.
For U1C A21G U72C U78C, the self-cleavage was 0.29.
For U1C A21U A35G, the self-cleavage was 0.95.
U1C A21U U58C showed a self-cleavage of 0.22.
Work on U1C A28G A65C yielded a self-cleavage of 0.06.
U1C A28G A75G U80C gave a self-cleavage of 0.39.
For U1C A28G U31A C50U U58C, the self-cleavage was 0.18.
For U1C A28G U58A, the self-cleavage was 0.28.
Variant U1C A28U C37A U48C has a self-cleavage of 0.05.
Variant U1C A28U U43C has a self-cleavage of 0.26.
In the case of U1C A28U U54C, the self-cleavage is reported as 0.41.
U1C A35G U41C U48A showed a self-cleavage of 0.58.
Work on U1C A35G U41C U49C U72A U80C yielded a self-cleavage of 0.74.
With U1C A35G U49A U76A the self-cleavage was 1.25.
For U1C A35G U60C, the self-cleavage was 0.95.
U1C A35G U78A showed a self-cleavage of 1.44.
U1C A35U C38U C68A gave a self-cleavage of 0.07.
Work on U1C A35U C44U U51C C62A A64G yielded a self-cleavage of 0.12.
In the case of U1C A35U U43C U66C, the self-cleavage is reported as 0.08.
U1C A35U U43G U72C showed a self-cleavage of 0.06.
U1C A35U U49A showed a self-cleavage of 0.17.
U1C A35U U60A A77U gave a self-cleavage of 0.08.
With U1C A45C A75U the self-cleavage was 0.31.
U1C A45G A47U gave a self-cleavage of 0.47.
For U1C A45G U54C U60C A65G, the self-cleavage was 0.49.
U1C A45G U80A showed a self-cleavage of 0.72.
For U1C A45U C62G, the self-cleavage was 0.26.
For U1C A45U U58C, the self-cleavage was 0.2.
U1C A47C A57G showed a self-cleavage of 0.35.
In the case of U1C A47U U60C, the self-cleavage is reported as 0.08.
In the case of U1C A56G A64G U67C U74G, the self-cleavage is reported as 0.06.
In the case of U1C A56U U69C U72C, the self-cleavage is reported as 0.14.
Variant U1C A64G U67C U74A has a self-cleavage of 0.2.
U1C A64U A65G U69C gave a self-cleavage of 0.18.
Variant U1C A65G U76A has a self-cleavage of 0.32.
Variant U1C C4A C12U U78A has a self-cleavage of 1.19.
For U1C C4U A5G A13U C23A C39U U67C, the self-cleavage was 0.07.
For U1C C4U A64G A75G, the self-cleavage was 0.79.
For U1C C11A U25A A47U U66C U78A, the self-cleavage was 0.11.
Work on U1C C11G U31C U69A U74C C81A yielded a self-cleavage of 0.15.
For U1C C11G U31G U48A U49A U72G U80A, the self-cleavage was 0.05.
In the case of U1C C12G A13G U69C, the self-cleavage is reported as 0.09.
Work on U1C C12G C40A U41A A47U U72C C81A yielded a self-cleavage of 0.02.
Variant U1C C12U U54A A64G has a self-cleavage of 1.2.
U1C C14A A20U A75G showed a self-cleavage of 0.13.
In the case of U1C C17U U25C U51C A56G U60C G61A, the self-cleavage is reported as 0.04.
With U1C C23U U60C U72C the self-cleavage was 0.23.
Variant U1C C27A A28G C34A C39U A45U has a self-cleavage of 0.14.
In the case of U1C C27A A28G C34A U76A, the self-cleavage is reported as 0.29.
Variant U1C C27A A56C U58A U60G A64U has a self-cleavage of 0.08.
With U1C C29A G61C A64G G73C C79U the self-cleavage was 0.09.
Variant U1C C32U G33A A45G U51A has a self-cleavage of 0.1.
U1C C34A U48G U80C showed a self-cleavage of 0.23.
In the case of U1C C34U A35G, the self-cleavage is reported as 0.3.
U1C C38U U43C showed a self-cleavage of 0.25.
For U1C C40A U66C, the self-cleavage was 0.3.
U1C C40U G73A gave a self-cleavage of 1.23.
In the case of U1C C44A U69C, the self-cleavage is reported as 0.34.
Work on U1C C44U A64G U66C yielded a self-cleavage of 0.11.
For U1C G6A C37U U66C, the self-cleavage was 0.04.
U1C G6C A65G U66C showed a self-cleavage of 0.07.
Variant U1C G7A A21G A28U A35G U58C has a self-cleavage of 0.04.
Work on U1C G7A A57U U69A yielded a self-cleavage of 0.18.
Work on U1C G7C A28G U49A U60G yielded a self-cleavage of 0.3.
Variant U1C G7C U49A U69A has a self-cleavage of 0.04.
U1C G8A A18G U51C G63U showed a self-cleavage of 0.06.
With U1C G8A A21G the self-cleavage was 0.32.
For U1C G8A A28G U80C, the self-cleavage was 0.07.
For U1C G8A A45G, the self-cleavage was 0.19.
With U1C G8A C11A U31C U54C A77U the self-cleavage was 0.04.
U1C G8A G22U U25A C50U showed a self-cleavage of 0.04.
U1C G8A U41C U51G U69A U72C showed a self-cleavage of 0.05.
Variant U1C G8C A35U U51A has a self-cleavage of 0.08.
Variant U1C G8C U26A has a self-cleavage of 0.4.
With U1C G8C U26A U54C U78C U80C the self-cleavage was 0.06.
